Results from article PMC12040169 (PLOS Biology, 2025).
Read-outs that look alike come from different tables or passages of the source. The list shows a part of the results.

Test system: T1, C. trachomatis L2/434/Bu expressing GFP (CTL2-GFP)
T1 construct: L2/434/Bu GFP intracellular growth in HeLa cells
Design: species or system HeLa; C. trachomatis total inclusion area by high-content imaging, normalised to DMSO
How it was run: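 Imaging read-out: GFP inclusions and Hoechst nuclei captured by high-content imaging after fixation. Inclusion area/number = chlamydial growth; nuclei count = host cell viability. MIC calculated per earlier method.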

[1] = total inclusion area; 28.5 h, 10 µM; inhibitor

Row | SMILES | % of control remaining [1] | % of control remaining (total inclusion area, 28.5 h, 10 µM, inhibitor)
1 | Cc1sc2ncn(CC(=O)NCCCN3CCCCC3)c(=O)c2c1C [CBK305831] | 96.3706 | –
2 | COc1ccccc1CCCNC(=O)CC1CCCCN1C (centres unmarked) [CBK282694] | 93.8882 | –
3 | C[C@@H]1CN(C(=O)OCCc2ccsc2)C[C@H](C)O1 [CBK200417] | 81.7013 | –
4 | CC(C)NC(=S)N1CC[C@@]2(NC(N)=O)N=C(N)O[C@H]2C1 [CBK010049] | 80.283 | –
5 | Cc1cc(C)n(CC2CN(C(C)C(=O)NCc3ccco3)CCO2)n1 (centres unmarked) [CBK305351] | 54.089 | –
6 | O=C(COc1ccc(Br)cc1)Nc1ccc(CN2CCCCC2)cc1 [CBK266181] | 103.836 | –
7 | COc1ccc(C2NCCc3c2[nH]c2ccccc32)cc1CN1CCN(c2ccc(F)cc2)CC1 (centres unmarked) [CBK264178C] | 68.4347 | –
8 | CN1CCN(NC(=O)CSc2ccccc2)CC1 [CBK268142] | 93.1966 | –
9 | CC1SC(c2cc3ccccc3o2)N(c2ccc(F)cc2F)C1=O (centres unmarked) [CBK006917] | 106.813 | –
10 | Cc1ccc(Cl)cc1NC(=O)c1cc(NC(=O)C2CCCCC2C(=O)O)ccc1N1CCCCC1 (centres unmarked) [CBK268371] | 81.8451 | –
11 | COc1ccc(C(=O)N2CCC3(CCCN(C(=O)c4c(F)cccc4F)C3)C2)cc1OC (centres unmarked) [CBK131669] | 77.6376 | –
12 | O=C(Nc1nnc(-c2ccncc2)o1)c1ccc(F)cc1 [CBK287431] | 91.1806 | –
13 | COc1cc(Nc2cncc(-c3ccc(O)cc3)n2)c(Cl)cc1C(=O)NCC(F)(F)F [CBK126470] | 74.8924 | –
14 | Cn1nc(-c2ccc(S(=O)(=O)Nc3nnc(C(F)(F)F)s3)s2)cc1C(F)(F)F [CBK062017] | 84.2271 | –
15 | O=C(NC1CCCC1)c1ccc2c(c1)OCO2 [CBK002177] | 100.95 | –
16 | COc1ccc(C(C)C)cc1-c1nccnc1NCCc1c[nH]c2ccccc12 [CBK036650] | 100.767 | –
17 | CC(C)c1csc(CNC(=O)NC2CCCN(c3ccn(C)n3)C2=O)n1 (centres unmarked) [CBK304447] | 42.44 | –
18 | O=C(C1=C(O)C(=O)N(CCCn2ccnc2)C1c1cccc([N+](=O)[O-])c1)c1ccc(F)cc1 (centres unmarked) [CBK264571] | 129.008 | –
19 | O=C(CCC1CCCC1)n1ccn(-c2ccc3c(c2)OCO3)c1=O [CBK106631] | 95.7718 | –
20 | Cc1[nH]c(=O)c(S(=O)(=O)c2ccccc2)c(C)c1Cl [CBK018736] | 78.4366 | –
21 | CC(=O)Nc1ccc(S(=O)(=O)N2CC[C@H](c3nc4ccccc4o3)C2)cc1 [CBK289373] | 74.4145 | –
22 | C=CCN1C(=O)CC2(C1=O)C(=O)N(Cc1nc(-c3ccc(Cl)cc3)no1)c1ccc(OC)cc12 (centres unmarked) [CBK075692] | 89.415 | –
23 | Cc1cc(C)c2nc(-c3cccnc3)cc(C(=O)N3CCN(S(=O)(=O)c4ccc(F)cc4)CC3)c2c1 [CBK267726] | 111.422 | –
24 | COC(=O)c1ccc(-c2cc3ccccc3o2)nc1 [CBK149228] | – | 100.735
25 | Nc1cc2ccccc2c(-c2ccsc2)n1 [CBK085710] | 88.7011 | –
26 | COc1ccc(C)cc1S(=O)(=O)Nc1cc(OCCN2CCOCC2)c2occc2c1 [CBK067419C] | 90.7795 | –
27 | CCn1c(COc2c(C)cccc2C)nnc1SCC(=O)N1c2ccccc2Sc2ccccc21 [CBK268103] | 113.435 | –

Row | SMILES | % of control remaining [1] | % of control remaining (total inclusion area, 28.5 h, 10 µM, inhibitor)
28 | COc1ncccc1C(=O)NCC(CC(=O)O)c1ccc(Cl)cc1 (centres unmarked) [CBK287264] | 97.2268 | –
29 | COc1ccc(C2c3c(-c4cc(C)c(C)cc4O)n[nH]c3C(=O)N2Cc2cccnc2)cc1OC (centres unmarked) [CBK268846] | 96.5007 | –
30 | Cc1nn(CC(=O)N2CCCC(C)C2)c(=O)c2cc3ccsc3n12 (centres unmarked) [CBK284041] | 101.256 | –
31 | Nc1nc(OCc2ccc3c(c2)OCO3)cnc1/C=C/c1ccccc1 [CBK145123] | 108.058 | –
32 | O=C(NCc1cccc(C(F)(F)F)c1)c1ccccc1-n1cccc1 [CBK149598] | 3.726 | –
33 | Nc1cccc(Oc2ccc(C(=O)O)c(C(=O)O)c2)c1 [CBK261180] | 53.2885 | –
34 | O=C(O)c1cccc(NS(=O)(=O)Cc2ccccc2[N+](=O)[O-])c1 [CBK038906] | 74.0929 | –
35 | COc1cc2c(cc1OC)CN(C(=O)CSc1nnc3ccccn13)CC2 [CBK287814] | 93.1777 | –
36 | COc1cc(C(=O)NCc2ccccn2)cc(OC)c1OC [CBK058552] | 97.3901 | –
37 | Cc1ccccc1C(c1ncccc1C)N(C)C(=O)C1CCN(Cc2ccc(Cl)c(Cl)c2)CC1 (centres unmarked) [CBK148366] | 93.4072 | –
38 | CCOc1ccc2[nH]c3c(c2c1)CN(C(=O)C1(C)CCCO1)CC3 (centres unmarked) [CBK282659] | 102.787 | –
39 | CC(C)C(=O)N[C@@H](C)Cn1nc(-c2cccs2)oc1=O [CBK284335] | 67.0238 | –
40 | Cc1nn(CC(=O)N2CCCC2)c(=O)c2cc3occc3n12 [CBK283621] | 93.7625 | –
41 | CCC1CCCCN1Cc1c(O)ccc2c(=O)c(Oc3ccc(OC)cc3)c(C(F)(F)F)oc12 (centres unmarked) [CBK263727] | 103.147 | –
42 | COc1ccc(OC)c(NC(=O)NCCc2c[nH]cn2)c1 [CBK269956] | 94.2637 | –
43 | CN(C)C(=O)c1ccc(-c2ccc(OC3CCN(C(=O)CC(C)(C)c4ccccc4)CC3)nc2)cc1 [CBK155047] | 72.3057 | –
44 | Cc1ccc(C2CC(=O)c3cnc(N)nc3C2)cc1 (centres unmarked) [CBK288166] | 119.246 | –
45 | CN(C)CCN(C)c1cc(C(F)(F)F)nc(NCc2ccc(Cl)cc2)n1 [CBK009668] | 70.7721 | –
46 | COc1ccc(Cl)cc1S(=O)(=O)N1CCN(Cc2ccc3c(c2)OCO3)CC1 [CBK266913] | 121.397 | –
47 | O=S(=O)(Nc1cc(O[C@@H]2CCNC2)c2occc2c1)c1ccccc1Br [CBK200020C] | 85.9559 | –
48 | CCn1nc(C)c(-c2cncn2CCn2nc(C)c(C)c2C)c1C [CBK281782] | 104.235 | –
49 | COCCNc1nc2c(c(N3CCSCC3)n1)CCNCC2 [CBK307510] | 77.5968 | –
50 | O=c1c2c3c(sc2nc(SCc2cc(O)[nH]n2)n1Cc1ccco1)CCC3 [CBK268301] | 117.059 | –
51 | CCCC/C=C/c1cnc(N)c(N[C@H](C)c2ccccc2)n1 [CBK064148] | 101.772 | –
52 | COc1nn(C)c(CO)c1Cc1c(Cl)cccc1Cl [CBK092285T] | 103.653 | –
53 | FC(F)(F)c1cccnc1OCCOc1ccc(Cl)cc1 [CBK116621] | 95.8647 | –
54 | O=C(O)c1cccc(NS(=O)(=O)c2cccs2)c1 [CBK270068] | 86.7082 | –

Row | SMILES | % of control remaining [1] | % of control remaining (total inclusion area, 28.5 h, 10 µM, inhibitor)
55 | CS(=O)(=O)Nc1ccc(CNC(=O)c2ccccc2Nc2cccc(C(F)(F)F)c2)cc1 [CBK161732] | 68.4479 | –
56 | Clc1ccc(Cl)c(-c2ccc(CNCc3cccnc3)o2)c1 [CBK269720C] | 53.8133 | –
57 | CCCC/C=C/c1cn2ccnc2c(NCc2cc(OC)c(OC)c(OC)c2)n1 [CBK066331] | 123.273 | –
58 | Cc1nc(-c2ccc(CNS(=O)(=O)c3ccc(Cl)cc3)cc2)ccc1C(N)=O [CBK285643] | 106.635 | –
59 | CCCC/C=C/c1nccnc1N[C@@H](CO)C(C)C [CBK037514] | 95.3144 | –
60 | O=C(O)CCSC1CC(=O)N(c2ccc(F)cc2)C1=O (centres unmarked) [CBK276120] | 85.4336 | –
61 | O=C(O)c1cc(N/N=C/c2ccc(-c3ccc(Cl)c(C(=O)O)c3)o2)ccc1Cl [CBK262483] | 96.9049 | –
62 | O=C1Nc2cc(Cl)ccc2C2=NCCCN12 [CBK284385] | 86.9988 | –
63 | CCN1CCCCC1CNC(=O)c1n[nH]c2c1CCC2 (centres unmarked) [CBK282207] | 90.421 | –
64 | O=C(CCn1cc(Br)ccc1=O)NC1CCN(Cc2ccccc2)CC1 [CBK305778] | 78.9405 | –
65 | Cc1ccc(C(C)C)c(OCC(O)CNC(C)C)c1 (centres unmarked) [CBK026604C] | 110.105 | –
66 | Cc1cc(CC(=O)NCCc2c[nH]c3ccc(Cl)cc23)on1 [CBK159774] | 88.4442 | –
67 | Cc1cccnc1C(NC(=O)C1CCN(CCCN2C(=O)CC3CCCCC3C2=O)CC1)c1ccc(F)cc1 (centres unmarked) [CBK147910] | 89.9511 | –
68 | CN(C)CCN(Cc1ccncc1)Cc1ccsc1 [CBK283206] | 38.1093 | –
69 | CCCCN(C=O)c1c(CC)nc2ccc(C(=O)Nc3ccc(Cl)c(Cl)c3)cn12 [CBK145470] | 95.4441 | –
70 | COc1ccc(Cl)cc1CN(C)C(=O)c1cc(C(C)C)n2ncnc2n1 [CBK307331] | 91.2054 | –
71 | CCCNc1nccnc1-c1ccc(F)c(Cl)c1 [CBK037100] | 140.764 | –
72 | O=C(NCCCn1ccnc1)c1cccnc1-c1nc2ccccc2s1 [CBK269939] | 96.2438 | –
73 | Cc1cc(C(=O)NC(Cc2ccncc2)C2CC(O)C2)c(C)o1 (centres unmarked) [CBK307181] | 37.1121 | –
74 | O=C(Nc1ccccc1C(=O)N1CCCC1)c1ccccc1CCc1ccccc1 [CBK268608] | 82.2597 | –
75 | Cc1nn(C)cc1CNC(=O)c1cc2ncc(Br)cn2n1 [CBK304336] | 74.6545 | –
76 | CC1CCCC(C)N1C(=O)Cn1ncc2cccn2c1=O (centres unmarked) [CBK283680] | 92.0522 | –
77 | Fc1ccc(Oc2nccnc2N2CCN(Cc3ccc(Cl)c(Cl)c3)CC2)cc1 [CBK083007T] | 94.0802 | –
78 | O=C1CC2(CCN(C(=O)N3CCCC3)CC2)Oc2ccc(F)cc21 [CBK283597] | 66.5012 | –
79 | Nc1nc(CCC(=O)N2Cc3cnn(Cc4ccc(F)cc4)c3C2)cs1 [CBK307019] | 83.9137 | –
80 | O=C(NCCCc1ccccc1)c1cccc(S(=O)(=O)N2CCCC2)c1 [CBK305024] | 76.7684 | –
